Measurements published in the supplement of paper PMC8728848.
Some of the results follow.

How the values were obtained:
Test in all cases: glycan array binding signal (z-score within array); higher = stronger binding
Settings in all cases: glycan notation: IUPAC condensed, linker removed
[1] = biological target: Gal(b1-4)GlcNAc(b1-2)Man(a1-3)Man(b1-4)GlcNAc(b1-4)GlcNAc
Method in brief: (§1)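 Glycan array data came from 3228 arrays in the Consortium for Functional Glycomics database, and only arrays with an available protein sequence were kept. Glycan names were put into IUPAC-condensed notation, and columns mapping to the same glycan were averaged. The binding signal is a within-array Z-score, averaged across arrays of one protein sequence run at different concentrations or buffers and across linkers. A negative Z-score can be read as non-binding.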

[2] = biological target: Gal(b1-4)GlcNAc(b1-2)Man(a1-3)[Gal(b1-4)GlcNAc(b1-2)Man(a1-6)]Man(b1-4)GlcNAc(b1-4)GlcNAc
Method in brief: as §1

[3] = biological target: Gal(b1-4)GlcNAc(b1-2)Man(a1-3)[Gal(b1-4)GlcNAc(b1-2)Man(a1-6)]Man(b1-4)GlcNAc(b1-4)[Fuc(a1-6)]GlcNAc
Method in brief: as §1

[4] = biological target: Gal(b1-4)GlcNAc(b1-2)Man(a1-3)[Gal(b1-4)GlcNAc(b1-2)][GlcNAc(b1-4)]Man(b1-4)GlcNAc(b1-4)GlcNAc
Method in brief: as §1

[5] = biological target: Gal(b1-4)GlcNAc(b1-2)Man(a1-3)[GlcNAc(b1-2)Man(a1-6)]Man(b1-4)GlcNAc(b1-4)GlcNAc
Method in brief: as §1

[6] = biological target: Gal(b1-4)GlcNAc(b1-2)Man(a1-3)[Man(a1-6)]Man(b1-4)GlcNAc(b1-4)GlcNAc
Method in brief: as §1

[7] = biological target: Gal(b1-4)GlcNAc(b1-2)Man(a1-6)Man(b1-4)GlcNAc(b1-4)GlcNAc
Method in brief: as §1

[8] = biological target: Gal(b1-4)GlcNAc(b1-2)Man(a1-6)[GlcNAc(b1-2)Man(a1-3)]Man(b1-4)GlcNAc(b1-4)GlcNAc
Method in brief: as §1

[9] = biological target: Gal(b1-4)GlcNAc(b1-2)Man(a1-6)[Man(a1-3)]Man(b1-4)GlcNAc(b1-4)GlcNAc
Method in brief: as §1

[10] = biological target: Gal(b1-4)GlcNAc(b1-2)[Gal(b1-4)GlcNAc(b1-4)]Man(a1-3)[Gal(b1-4)GlcNAc(b1-2)Man(a1-6)]Man(b1-4)GlcNAc(b1-4)GlcNAc
Method in brief: as §1

[11] = biological target: Gal(b1-4)GlcNAc(b1-2)[Gal(b1-4)GlcNAc(b1-4)]Man(a1-3)[Gal(b1-4)GlcNAc(b1-2)[Gal(b1-4)GlcNAc(b1-6)]Man(a1-6)]Man(b1-4)GlcNAc(b1-4)GlcNAc
Method in brief: as §1

[12] = biological target: Gal(b1-4)GlcNAc(b1-2)[Gal(b1-4)GlcNAc(b1-4)]Man(a1-3)[GlcNAc(b1-4)][Gal(b1-4)GlcNAc(b1-2)Man(a1-6)]Man(b1-4)GlcNAc(b1-4)GlcNAc
Method in brief: as §1

[13] = biological target: Gal(b1-4)GlcNAc(b1-2)[Gal(b1-4)GlcNAc(b1-4)]Man(a1-3)[GlcNAc(b1-4)][Gal(b1-4)GlcNAc(b1-2)[Gal(b1-4)GlcNAc(b1-6)]Man(a1-6)]Man(b1-4)GlcNAc(b1-4)GlcNAc
Method in brief: as §1

[14] = biological target: Gal(b1-4)GlcNAc(b1-2)[Gal(b1-4)GlcNAc(b1-6)]Man(a1-6)[Gal(b1-4)GlcNAc(b1-2)Man(a1-3)]Man(b1-4)GlcNAc(b1-4)GlcNAc
Method in brief: as §1

[15] = biological target: Gal(b1-4)GlcNAc(b1-2)[Gal(b1-4)GlcNAc(b1-6)]Man(a1-6)[GlcNAc(b1-4)][Gal(b1-4)GlcNAc(b1-2)Man(a1-3)]Man(b1-4)GlcNAc(b1-4)GlcNAc
Method in brief: as §1

[16] = biological target: Gal(b1-4)GlcNAc(b1-3)Gal(b1-3)GlcNAc
Method in brief: as §1

[17] = biological target: Gal(b1-4)GlcNAc(b1-3)Gal(b1-4)Glc
Method in brief: as §1

[18] = biological target: Gal(b1-4)GlcNAc(b1-3)Gal(b1-4)GlcNAc
Method in brief: as §1

[19] = biological target: Gal(b1-4)GlcNAc(b1-3)Gal(b1-4)GlcNAc(b1-3)Gal(b1-4)GlcNAc
Method in brief: as §1

[20] = biological target: Gal(b1-4)GlcNAc(b1-3)Gal(b1-4)[Fuc(a1-3)GlcNAc(b1-6)]Gal(b1-4)Glc
Method in brief: as §1

[21] = biological target: Gal(b1-4)GlcNAc(b1-3)Gal(b1-4)[Fuc(a1-3)]GlcNAc(b1-3)Gal(b1-4)[Fuc(a1-3)]GlcNAc
Method in brief: as §1

[22] = biological target: Gal(b1-4)GlcNAc(b1-3)GalNAc
Method in brief: as §1

[23] = biological target: Gal(b1-4)GlcNAc(b1-3)[Gal(b1-4)GlcNAc(b1-6)]Gal(b1-4)GlcNAc
Method in brief: as §1

[24] = biological target: Gal(b1-4)GlcNAc(b1-3)[Gal(b1-4)GlcNAc(b1-6)]GalNAc
Method in brief: as §1

[25] = biological target: Gal(b1-4)GlcNAc(b1-3)[GlcNAc(b1-6)]Gal(b1-4)GlcNAc
Method in brief: as §1

[26] = biological target: Gal(b1-4)GlcNAc(b1-6)Gal(b1-4)GlcNAc
Method in brief: as §1

[27] = biological target: Gal(b1-4)GlcNAc(b1-6)Gal(b1-4)GlcNAc(b1-6)GalNAc
Method in brief: as §1

[28] = biological target: Gal(b1-4)GlcNAc(b1-6)GalNAc
Method in brief: as §1

[29] = biological target: Gal(b1-4)GlcNAc(b1-6)[Gal(b1-3)]GalNAc
Method in brief: as §1

[30] = biological target: Gal(b1-6)Gal
Method in brief: as §1

[31] = biological target: Gal3S(b1-3)GalNAc
Method in brief: as §1

[32] = biological target: Gal3S(b1-3)GlcNAc
Method in brief: as §1

[33] = biological target: Gal3S(b1-3)[Fuc(a1-4)]GlcNAc
Method in brief: as §1

[34] = biological target: Gal3S(b1-4)Glc
Method in brief: as §1

[35] = biological target: Gal3S(b1-4)Glc6S
Method in brief: as §1

[36] = biological target: Gal3S(b1-4)GlcNAc
Method in brief: as §1

[37] = biological target: Gal3S(b1-4)GlcNAc6S
Method in brief: as §1

B1: ConA (Canavalia ensiformis), P02866 (protein)
chain: MAISKKSSLFLPIFTFITMFLMVVNKVSSSTHETNALHFMFNQFSKDQKDLILQGDATTGTDGNLELTRVSSNGSPQGSSVGRALFYAPVHIWESSAVVASFEATFTFLIKSPDSHPADGIAFFISNIDSSIPSGSTGRLLGLFPDANVIRNSTTIDFNAAYNADTIVAVELDTYPNTDIGDPSYPHIGIDIKSVRSKKTAKWNMQNGKVGTAHIIYNSVDKRLSAVVSYPNADSATVSYDVDLDNVLPEWVRVGLSASTGLYKETNTILSWSFTSKLKSNEIPDIATVV
With B1 the “glycan array binding signal (z-score)” value [1] was -0.192, the “glycan array binding signal (z-score)” value [2] was 2.21 and the “glycan array binding signal (z-score)” value [3] was 0.005. The “glycan array binding signal (z-score)” value [4] was -0.224, the “glycan array binding signal (z-score)” value [5] was 0.311 and the “glycan array binding signal (z-score)” value [6] was 1.08. For the same binder, the “glycan array binding signal (z-score)” value [7] was -0.193, the “glycan array binding signal (z-score)” value [8] was -0.152 and the “glycan array binding signal (z-score)” value [9] was 0.688. For the same binder, the “glycan array binding signal (z-score)” value [10] was -0.139, the “glycan array binding signal (z-score)” value [11] was -0.122 and the “glycan array binding signal (z-score)” value [12] was -0.211. The “glycan array binding signal (z-score)” value [13] was -0.196, the “glycan array binding signal (z-score)” value [14] was -0.147 and the “glycan array binding signal (z-score)” value [15] was -0.24. For the same binder, the “glycan array binding signal (z-score)” value [16] was -0.257, the “glycan array binding signal (z-score)” value [17] was -0.274 and the “glycan array binding signal (z-score)” value [18] was -0.261. For the same binder, the “glycan array binding signal (z-score)” value [19] was -0.262, the “glycan array binding signal (z-score)” value [20] was -0.01 and the “glycan array binding signal (z-score)” value [21] was -0.121. For the same binder, the “glycan array binding signal (z-score)” value [22] was -0.228, the “glycan array binding signal (z-score)” value [23] was -0.208 and the “glycan array binding signal (z-score)” value [24] was -0.214. For the same binder, the “glycan array binding signal (z-score)” value [25] was -0.234, the “glycan array binding signal (z-score)” value [26] was -0.206 and the “glycan array binding signal (z-score)” value [27] was -0.311. The “glycan array binding signal (z-score)” value [28] was -0.218, the “glycan array binding signal (z-score)” value [29] was -0.234 and the “glycan array binding signal (z-score)” value [30] was -0.254. The “glycan array binding signal (z-score)” value [31] was -0.284, the “glycan array binding signal (z-score)” value [32] was -0.227 and the “glycan array binding signal (z-score)” value [33] was -0.301. The “glycan array binding signal (z-score)” value [34] was -0.171, the “glycan array binding signal (z-score)” value [35] was 0.35 and the “glycan array binding signal (z-score)” value [36] was -0.294. For the same binder, the “glycan array binding signal (z-score)” value [37] was -0.258.
